Results published in the supplement of paper PMC11876631.
± gives the standard deviation of the averaged measurements. Laboratory Escherichia coli strains with one amino-acid change in an essential protein, pooled on minimal glucose agar with carbenicillin or gentamicin at twice the control MIC (plus kanamycin and chloramphenicol for the plasmids), 48 h. Fold change of barcode share against drug-free plates; higher = less susceptible. Active = above 20 in both replicates (the paper's putatively resistant). '<' = one read or none on drug, '>' = one read or none on a drug-free plate. Shares are relative, so most strains fall below 1 when a few take over. Listed are strains with at least 15 reads on both drug-free plates, and hits; most hits rest on fewer reference reads. Replicate rank correlation about 0.5. Edits are read from barcodes.

Molecular target: Escherichia coli (laboratory strain)
Experiment: barcode share on antibiotic plates over drug-free plates; higher = less susceptible
Experimental: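 A pool of E. coli strains, each edited to carry one amino-acid change in an essential protein, was grown for 48 h on minimal glucose agar with or without antibiotic; strain barcodes were sequenced; mean of two replicates.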

[1] = antibiotic: carbenicillin, 2× MIC (3.1 µg/mL)
[2] = antibiotic: gentamicin, 2× MIC (MIC 0.45 µg/mL)

Protein	fold change of barcode share [1]	fold change of barcode share [2]
lpxD V59A (protein) MPSIRLADLAQQLDAELHGDGDIVITGVASMQSAQTGHITFMVNPKYREHLGLCQASAAVMTQDDLPFAKSAALVVKNPYLTYARMAQILDTTPQPAQNIAPSAVIDATAKLGNNVSIGANAVIESGVELGDNVIIGAGCFVGKNSKIGAGSRLWANVTIYHEIQIGQNCLIQSGTVVGADGFGYANDRGNWVKIPQIGRVIIGDRVEIGACTTIDRGALDDTIIGNGVIIDNQCQIAHNVVIGDNTAVAGGVIMAGSLKIGRYCMIGGASVINGHMEICDKVTVTGMGMVMRPITEPGVYSSGIPLQPNKVWRKTAALVMNIDDMSKRLKSLERKVNQQD	0.316 ± 0.12	0.00563 ± 0.0037
lpxD V123Q (protein) MPSIRLADLAQQLDAELHGDGDIVITGVASMQSAQTGHITFMVNPKYREHLGLCQASAVVMTQDDLPFAKSAALVVKNPYLTYARMAQILDTTPQPAQNIAPSAVIDATAKLGNNVSIGANAQIESGVELGDNVIIGAGCFVGKNSKIGAGSRLWANVTIYHEIQIGQNCLIQSGTVVGADGFGYANDRGNWVKIPQIGRVIIGDRVEIGACTTIDRGALDDTIIGNGVIIDNQCQIAHNVVIGDNTAVAGGVIMAGSLKIGRYCMIGGASVINGHMEICDKVTVTGMGMVMRPITEPGVYSSGIPLQPNKVWRKTAALVMNIDDMSKRLKSLERKVNQQD	0.267 ± 0.14	0.11 ± 0.15
lpxD V123A (protein) MPSIRLADLAQQLDAELHGDGDIVITGVASMQSAQTGHITFMVNPKYREHLGLCQASAVVMTQDDLPFAKSAALVVKNPYLTYARMAQILDTTPQPAQNIAPSAVIDATAKLGNNVSIGANAAIESGVELGDNVIIGAGCFVGKNSKIGAGSRLWANVTIYHEIQIGQNCLIQSGTVVGADGFGYANDRGNWVKIPQIGRVIIGDRVEIGACTTIDRGALDDTIIGNGVIIDNQCQIAHNVVIGDNTAVAGGVIMAGSLKIGRYCMIGGASVINGHMEICDKVTVTGMGMVMRPITEPGVYSSGIPLQPNKVWRKTAALVMNIDDMSKRLKSLERKVNQQD	0.368 ± 0.15	0.17 ± 0.24
lpxD V123W (protein) MPSIRLADLAQQLDAELHGDGDIVITGVASMQSAQTGHITFMVNPKYREHLGLCQASAVVMTQDDLPFAKSAALVVKNPYLTYARMAQILDTTPQPAQNIAPSAVIDATAKLGNNVSIGANAWIESGVELGDNVIIGAGCFVGKNSKIGAGSRLWANVTIYHEIQIGQNCLIQSGTVVGADGFGYANDRGNWVKIPQIGRVIIGDRVEIGACTTIDRGALDDTIIGNGVIIDNQCQIAHNVVIGDNTAVAGGVIMAGSLKIGRYCMIGGASVINGHMEICDKVTVTGMGMVMRPITEPGVYSSGIPLQPNKVWRKTAALVMNIDDMSKRLKSLERKVNQQD	0.341 ± 0.039	0.00516 ± 0.0019
lpxD V59Q (protein) MPSIRLADLAQQLDAELHGDGDIVITGVASMQSAQTGHITFMVNPKYREHLGLCQASAQVMTQDDLPFAKSAALVVKNPYLTYARMAQILDTTPQPAQNIAPSAVIDATAKLGNNVSIGANAVIESGVELGDNVIIGAGCFVGKNSKIGAGSRLWANVTIYHEIQIGQNCLIQSGTVVGADGFGYANDRGNWVKIPQIGRVIIGDRVEIGACTTIDRGALDDTIIGNGVIIDNQCQIAHNVVIGDNTAVAGGVIMAGSLKIGRYCMIGGASVINGHMEICDKVTVTGMGMVMRPITEPGVYSSGIPLQPNKVWRKTAALVMNIDDMSKRLKSLERKVNQQD	0.364 ± 0.2	–
lpxD V178A (protein) MPSIRLADLAQQLDAELHGDGDIVITGVASMQSAQTGHITFMVNPKYREHLGLCQASAVVMTQDDLPFAKSAALVVKNPYLTYARMAQILDTTPQPAQNIAPSAVIDATAKLGNNVSIGANAVIESGVELGDNVIIGAGCFVGKNSKIGAGSRLWANVTIYHEIQIGQNCLIQSGTVAGADGFGYANDRGNWVKIPQIGRVIIGDRVEIGACTTIDRGALDDTIIGNGVIIDNQCQIAHNVVIGDNTAVAGGVIMAGSLKIGRYCMIGGASVINGHMEICDKVTVTGMGMVMRPITEPGVYSSGIPLQPNKVWRKTAALVMNIDDMSKRLKSLERKVNQQD	0.183 ± 0.056	< 0.0195
lpxD V123D (protein) MPSIRLADLAQQLDAELHGDGDIVITGVASMQSAQTGHITFMVNPKYREHLGLCQASAVVMTQDDLPFAKSAALVVKNPYLTYARMAQILDTTPQPAQNIAPSAVIDATAKLGNNVSIGANADIESGVELGDNVIIGAGCFVGKNSKIGAGSRLWANVTIYHEIQIGQNCLIQSGTVVGADGFGYANDRGNWVKIPQIGRVIIGDRVEIGACTTIDRGALDDTIIGNGVIIDNQCQIAHNVVIGDNTAVAGGVIMAGSLKIGRYCMIGGASVINGHMEICDKVTVTGMGMVMRPITEPGVYSSGIPLQPNKVWRKTAALVMNIDDMSKRLKSLERKVNQQD	0.393 ± 0.059	0.00415 ± 0.0025
aroD L158A (protein) MKTVTVKDLVIGTGAPKIIVSLMAKDIASVKSEALAYREADFDILEWRVDHYADLSNVESVMAAAKILRETMPEKPLLFTFRSAKEGGEQAISTEAYIALNRAAIDSGLVDMIDLELFTGDDQVKETVAYAHAHDVKVVMSNHDFHKTPEAEEIIARARKMQSFDADIPKIALMPQSTSDVLTLLAATLEMQEQYADRPIITMSMAKTGVISRLAGEVFGSAATFGAVKKASAPGQISVNDLRTVLTILHQA	0.398 ± 0.12	< 0.00529
aroD L158W (protein) MKTVTVKDLVIGTGAPKIIVSLMAKDIASVKSEALAYREADFDILEWRVDHYADLSNVESVMAAAKILRETMPEKPLLFTFRSAKEGGEQAISTEAYIALNRAAIDSGLVDMIDLELFTGDDQVKETVAYAHAHDVKVVMSNHDFHKTPEAEEIIARWRKMQSFDADIPKIALMPQSTSDVLTLLAATLEMQEQYADRPIITMSMAKTGVISRLAGEVFGSAATFGAVKKASAPGQISVNDLRTVLTILHQA	0.347 ± 0.0067	< 0.008
aroD F79Q (protein) MKTVTVKDLVIGTGAPKIIVSLMAKDIASVKSEALAYREADFDILEWRVDHYADLSNVESVMAAAKILRETMPEKPLLQTFRSAKEGGEQAISTEAYIALNRAAIDSGLVDMIDLELFTGDDQVKETVAYAHAHDVKVVMSNHDFHKTPEAEEIIARLRKMQSFDADIPKIALMPQSTSDVLTLLAATLEMQEQYADRPIITMSMAKTGVISRLAGEVFGSAATFGAVKKASAPGQISVNDLRTVLTILHQA	0.396 ± 0.038	< 0.00975
aroD F79W (protein) MKTVTVKDLVIGTGAPKIIVSLMAKDIASVKSEALAYREADFDILEWRVDHYADLSNVESVMAAAKILRETMPEKPLLWTFRSAKEGGEQAISTEAYIALNRAAIDSGLVDMIDLELFTGDDQVKETVAYAHAHDVKVVMSNHDFHKTPEAEEIIARLRKMQSFDADIPKIALMPQSTSDVLTLLAATLEMQEQYADRPIITMSMAKTGVISRLAGEVFGSAATFGAVKKASAPGQISVNDLRTVLTILHQA	0.598 ± 0.086	0.0693 ± 0.083
aroD L45W (protein) MKTVTVKDLVIGTGAPKIIVSLMAKDIASVKSEALAYREADFDIWEWRVDHYADLSNVESVMAAAKILRETMPEKPLLFTFRSAKEGGEQAISTEAYIALNRAAIDSGLVDMIDLELFTGDDQVKETVAYAHAHDVKVVMSNHDFHKTPEAEEIIARLRKMQSFDADIPKIALMPQSTSDVLTLLAATLEMQEQYADRPIITMSMAKTGVISRLAGEVFGSAATFGAVKKASAPGQISVNDLRTVLTILHQA	0.275 ± 0.12	0.00531 ± 0.0044
aroD L45Q (protein) MKTVTVKDLVIGTGAPKIIVSLMAKDIASVKSEALAYREADFDIQEWRVDHYADLSNVESVMAAAKILRETMPEKPLLFTFRSAKEGGEQAISTEAYIALNRAAIDSGLVDMIDLELFTGDDQVKETVAYAHAHDVKVVMSNHDFHKTPEAEEIIARLRKMQSFDADIPKIALMPQSTSDVLTLLAATLEMQEQYADRPIITMSMAKTGVISRLAGEVFGSAATFGAVKKASAPGQISVNDLRTVLTILHQA	0.3283 ± 0.00042	< 0.00323
aroD L45A (protein) MKTVTVKDLVIGTGAPKIIVSLMAKDIASVKSEALAYREADFDIAEWRVDHYADLSNVESVMAAAKILRETMPEKPLLFTFRSAKEGGEQAISTEAYIALNRAAIDSGLVDMIDLELFTGDDQVKETVAYAHAHDVKVVMSNHDFHKTPEAEEIIARLRKMQSFDADIPKIALMPQSTSDVLTLLAATLEMQEQYADRPIITMSMAKTGVISRLAGEVFGSAATFGAVKKASAPGQISVNDLRTVLTILHQA	0.326 ± 0.064	0.00465 ± 0.0006
aroD F79A (protein) MKTVTVKDLVIGTGAPKIIVSLMAKDIASVKSEALAYREADFDILEWRVDHYADLSNVESVMAAAKILRETMPEKPLLATFRSAKEGGEQAISTEAYIALNRAAIDSGLVDMIDLELFTGDDQVKETVAYAHAHDVKVVMSNHDFHKTPEAEEIIARLRKMQSFDADIPKIALMPQSTSDVLTLLAATLEMQEQYADRPIITMSMAKTGVISRLAGEVFGSAATFGAVKKASAPGQISVNDLRTVLTILHQA	0.41 ± 0.042	< 0.0123
